Data on 153 variants can be found in a collection of fitness landscapes (doi:10.1016/j.celrep.2020.107928).

In all, about 81,000 sequences were measured (“one-hybrid fitness for binding NBS DNA”: median about -0.1, highest 2% from about 0.36 on). The list shows a part of the results.

The labels stand for the following.
B1: Caulobacter ParB omega fusion; a variant is named by its letters at X, in order, B8GW30 (parent)
chain: MESVVVGEPGMSEGRRGLGRGLSALLGEVDAAPAQAPGEQLGGSREAPIEILQRNPDQPRRTFREEDLEDLSNSIREKGVLQPILVRPSPDTAGEYQIVAGERAWRAAQRAGLKTVPIMVRELDDLAVLEIGIIENVQRADLNVLEEALSYKVLMEKFERTQENIAQTIGKSXSHVANXMRLLXLPDEVQSYLVSGELTAXHARAIAAAADPVALAKQIIEGGLSVRETEALARKAPNLSAGKSKGGRPPRVKDTDTQALESDLSSVLGLDVSIDHRGSTGTLTITYATLEQLDDLCNRLTRGI

The test covers variants of B1. The test is described as follows: one-hybrid fitness for binding NBS DNA (the Noc-binding site; scaled: cognate 1, non-cognate 0); higher = stronger binding. The note with it: with NBS DNA site. A digest of the protocol: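 Caulobacter ParB libraries with four specificity codons randomised were screened by bacterial one-hybrid selection in the E. coli USO strain, using a HIS3 reporter whose site lies 19 bp from the promoter. Selection ran for 48 hours at 37°C on M9 lacking histidine, with 0.1 mM IPTG and 5 mM 3-AT. Plasmids were Illumina-sequenced before and after selection, three replicate libraries were pooled, and variants with under 10 reads were dropped. Fitness is the log change in each variant's read ratio to wild type, rescaled against the cognate and non-cognate sites.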
RPGE: the “one-hybrid fitness for binding NBS DNA” value is at most 0.2. As for YRHE, the “one-hybrid fitness for binding NBS DNA” value was at most 0.2.

For TKYR, the “one-hybrid fitness for binding NBS DNA” value is at most 0.2. As for GFGS, the figure is at most 0.2; as for IVRY, at most 0.2; as for WHRT, at most 0.2. As for VNIY, the figure is at most 0.2; as for AWWG, at most 0.2; as for KTCN, at most 0.2. As for YEST, the figure is at most 0.2; as for DRPR, at most 0.2; as for REID, at most 0.2. On to QDPM, for which the “one-hybrid fitness for binding NBS DNA” value is at most 0.2.

In the case of LHPH, the “one-hybrid fitness for binding NBS DNA” value is at most 0.2. On to VVDS, for which the “one-hybrid fitness for binding NBS DNA” value was at most 0.2. The figure for EVLT is at most 0.2; for FLAC it is at most 0.2; for HNAR it is at most 0.2. As for AWVC, the figure is at most 0.2; as for HLNG, at most 0.2; as for YMRG, at most 0.2. The figure for EARV is at most 0.2. Turning to QADI, the “one-hybrid fitness for binding NBS DNA” value is at most 0.2. With LNPM, the “one-hybrid fitness for binding NBS DNA” value was at most 0.2.

Consider VAAC, for which the “one-hybrid fitness for binding NBS DNA” value is at most 0.2.

With YGKM, the “one-hybrid fitness for binding NBS DNA” value was at most 0.2. As for YESR, the figure is at most 0.2; as for EKLV, at most 0.2; as for FYNS, at most 0.2. The figure for KWNT is at most 0.2; for LEKQ it is at most 0.2; for LIWR it is at most 0.2.

For AGIA, the “one-hybrid fitness for binding NBS DNA” value is at most 0.2. Consider SKLA, for which the “one-hybrid fitness for binding NBS DNA” value is at most 0.2. The figure for NVLS is at most 0.2; for QQYP it is at most 0.2; for WSNR it is at most 0.2. KAKT: the “one-hybrid fitness for binding NBS DNA” value worked out at 0.252. As for WHLG, the figure is at most 0.2.

With QVMA, the “one-hybrid fitness for binding NBS DNA” value is at most 0.2.

EVET: the “one-hybrid fitness for binding NBS DNA” value was at most 0.2. The figure for NSMS is at most 0.2; for RCRQ it is 0.202; for LTNY it is at most 0.2. The figure for RYKQ is at most 0.2; for VSSK it is at most 0.2; for AYGY it is at most 0.2. Consider NDRL, for which the “one-hybrid fitness for binding NBS DNA” value was at most 0.2. The figure for CHCR is at most 0.2; for MAGC it is at most 0.2. The figure for WSSI is at most 0.2. The figure for SVRC is at most 0.2. Turning to WIYE, the “one-hybrid fitness for binding NBS DNA” value is at most 0.2.

GPEY: the “one-hybrid fitness for binding NBS DNA” value was at most 0.2. As for SVAF, the figure is at most 0.2; as for QSMI, at most 0.2; as for QEMT, at most 0.2. As to VTGP, the “one-hybrid fitness for binding NBS DNA” value is at most 0.2.

As for PYQS, the “one-hybrid fitness for binding NBS DNA” value is at most 0.2.

Consider SYNK, for which the “one-hybrid fitness for binding NBS DNA” value is at most 0.2. As for VING, the figure is at most 0.2; as for RFWD, at most 0.2. The figure for HLNE is at most 0.2; for EKVW it is at most 0.2. As for TANP, the figure is at most 0.2; as for TDND, at most 0.2; as for GGKS, at most 0.2.

LVPI: the “one-hybrid fitness for binding NBS DNA” value was at most 0.2.

In the case of IANM, the “one-hybrid fitness for binding NBS DNA” value is at most 0.2. The figure for REGP is at most 0.2; for GAAA it is at most 0.2. As for GRSH, the figure is at most 0.2; as for GEHL, at most 0.2. For SGWL, the “one-hybrid fitness for binding NBS DNA” value is at most 0.2. As for ADDL, the figure is at most 0.2; as for KYMP, at most 0.2. The figure for CTRV is at most 0.2; for IHTT it is at most 0.2; for FYHT it is at most 0.2. The figure for DRNC is at most 0.2; for RDAW it is at most 0.2; for LDNF it is at most 0.2. As for RTFI, the “one-hybrid fitness for binding NBS DNA” value was at most 0.2. As for YRDF, the figure is at most 0.2. With ALTL, the “one-hybrid fitness for binding NBS DNA” value is at most 0.2. As for TADL, the figure is at most 0.2; as for SLAQ, at most 0.2; as for QDMV, at most 0.2. As for QHEE, the figure is at most 0.2; as for MCPR, at most 0.2; as for SYLD, at most 0.2.

As to PPMP, the “one-hybrid fitness for binding NBS DNA” value is at most 0.2.

Regarding SSSQ, the “one-hybrid fitness for binding NBS DNA” value was at most 0.2. The figure for RLLK is at most 0.2; for KTHY it is at most 0.2; for CTSC it is at most 0.2. As for KWKC, the figure is at most 0.2. The figure for PPPL is at most 0.2. With YRRC, the “one-hybrid fitness for binding NBS DNA” value was at most 0.2.

With SHDD, the “one-hybrid fitness for binding NBS DNA” value was at most 0.2. The figure for HPAC is at most 0.2; for SAQY it is at most 0.2; for ELRS it is at most 0.2. The figure for HLHS is at most 0.2. As for SLDV, the figure is at most 0.2. As for HWDT, the “one-hybrid fitness for binding NBS DNA” value was at most 0.2. The figure for MKHR is at most 0.2; for IRAD it is at most 0.2. As for PHLD, the figure is at most 0.2. As for HRNN, the figure is at most 0.2; as for GSSV, at most 0.2; as for VCTM, at most 0.2. On to ANIC, for which the “one-hybrid fitness for binding NBS DNA” value is at most 0.2. As for DEGT, the figure is at most 0.2; as for HARW, at most 0.2; as for MKHF, at most 0.2. As for WLKL, the figure is at most 0.2; as for HTNS, at most 0.2; as for SKEI, at most 0.2.

Turning to LWPG, the “one-hybrid fitness for binding NBS DNA” value is at most 0.2. The figure for QKGK is at most 0.2; for RDMR it is at most 0.2. Consider ELLV, for which the “one-hybrid fitness for binding NBS DNA” value was at most 0.2.

Take LRSE: the “one-hybrid fitness for binding NBS DNA” value is at most 0.2. The figure for QGTC is at most 0.2; for MWSG it is at most 0.2. As for QTGN, the figure is 0.255; as for VLPD, at most 0.2; as for SYTI, at most 0.2.

LKMR: the “one-hybrid fitness for binding NBS DNA” value was at most 0.2. As for CDPG, the figure is at most 0.2; as for NSLT, at most 0.2; as for ERTH, at most 0.2. As for SILY, the figure is at most 0.2; as for KLPF, at most 0.2.

As to PIIL, the “one-hybrid fitness for binding NBS DNA” value was at most 0.2. The figure for IVDR is at most 0.2. As for EQMC, the figure is at most 0.2. For the variant CIVP, the “one-hybrid fitness for binding NBS DNA” value is at most 0.2. Consider SAPA, for which the “one-hybrid fitness for binding NBS DNA” value is at most 0.2. As for SEPI, the figure is at most 0.2; as for SSIT, at most 0.2. As for AQCY, the figure is at most 0.2; as for QRYM, 0.353; as for DWSG, at most 0.2. As to ADMV, the “one-hybrid fitness for binding NBS DNA” value was at most 0.2.

Turning to PVWS, the “one-hybrid fitness for binding NBS DNA” value is at most 0.2. As for QQSA, the figure is 0.37; as for GVEG, at most 0.2.

Regarding HWSA, the “one-hybrid fitness for binding NBS DNA” value was at most 0.2. The figure for KCLR is at most 0.2. The figure for LFVR is at most 0.2. The figure for GCRC is at most 0.2.
